{"source": "PubChem BioAssay AID485294", "about": "(National Center for Advancing Translational Sciences (NCATS), 2010)", "note": "Screen size: about 370,000 compounds; about 150 (0.041%) were called active. Inconclusive results, whose numbers are uncertain, are shown with a selection of clear calls. Calls come from the whole dose curve; as a rule, active = well fitted inhibition curve with a large enough effect; inconclusive = small, poorly fitted or top-dose-only effect; inactive = flat fitted curve, though single readings scatter. Potencies of inconclusive entries are left out as doubtful fits.", "data": [{"target": "Beta-lactamase (Escherichia coli (strain K12)) (UniProt P00811)", "sequence (P00811 whole entry, looked up)": "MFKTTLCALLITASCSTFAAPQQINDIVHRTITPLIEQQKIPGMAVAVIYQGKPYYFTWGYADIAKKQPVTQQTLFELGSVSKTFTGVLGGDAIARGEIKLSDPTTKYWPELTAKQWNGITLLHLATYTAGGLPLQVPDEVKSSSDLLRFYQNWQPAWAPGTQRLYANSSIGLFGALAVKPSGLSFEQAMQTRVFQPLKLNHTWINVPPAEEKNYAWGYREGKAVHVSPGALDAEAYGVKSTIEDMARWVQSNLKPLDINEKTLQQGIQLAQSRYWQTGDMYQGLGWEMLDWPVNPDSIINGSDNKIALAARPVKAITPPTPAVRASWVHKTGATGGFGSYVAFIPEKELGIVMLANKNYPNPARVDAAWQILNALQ", "assay": "qHTS Inhibitors of AmpC Beta-Lactamase (assay with detergent); note: nearly all actives have a fitted effect of over 25% in size; note: potency is the fitted concentration of half-maximal effect; tags give direction and shape of the fitted curve;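 for activity change, negative = inhibition: 0% = no-compound wells and -100% = no-enzyme wells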", "conditions": "AmpC hydrolysis of nitrocefin, absorbance 480 nm, 0.01% Triton; activity change, negative = inhibition: at 114 µM (top of the series)", "how_it_was_run": "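20 mM phosphate pH 7.0 + 0.01% (detergent screen) or 0.0001% Triton X-100; 5.3 nM AmpC reagent; cpd preinc 15 min RT; nitrocefin (800 uM stock) to start; A480 q20 s × 4 min; Activity was normalised to no-enzyme and no-compound control wells.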", "values": [{"compound": "CC(=O)c1c(C)nn(C(C)CC(=O)O)c1C", "note": "(stereo not drawn)", "Potency": "inconclusive [inhibitor, single point]"}, {"compound": "CN(Cc1ccco1)C(=O)C1CCN(c2nnc(-n3cccc3)s2)CC1", "Potency": "inconclusive [inhibitor, full curve, poor fit]"}, {"compound": "O=c1cc(-c2ccccc2)[nH]n1-c1ccc([N+](=O)[O-])cc1", "activity change, negative = inhibition": "inactive: -5.71%"}, {"compound": "C=CCC(CC=C)(NC(=O)c1ccccc1C)c1ccccc1", "Potency": "inconclusive [inhibitor, full curve, poor fit]"}, {"compound": "Cc1ccccc1NC(=O)c1cccnc1", "Potency": "inconclusive [inhibitor, full curve, poor fit]"}, {"compound": "Cc1cccc(OCC(=O)NCC(=O)n2nc(C)cc2C)c1", "activity change, negative = inhibition": "inactive: 10.4%"}, {"compound": "O=C(O)CCNC(=O)/C(=C\\c1ccco1)NC(=O)c1ccco1", "Potency": "inconclusive [inhibitor, full curve, poor fit]"}, {"compound": "O=C(Nc1cc(Cl)ccc1-n1cncn1)c1ccc([N+](=O)[O-])o1", "Potency": "inconclusive [inhibitor, full curve, poor fit]"}, {"compound": "O=C(OCc1cnc(Cl)s1)c1cccc(Cl)c1Cl", "Potency": "inconclusive [inhibitor, partial curve]"}, {"compound": "N#Cc1c(NC(=O)C2CCCO2)sc2c1CCCCC2", "note": "(stereo not drawn)", "Potency": "inconclusive [inhibitor, partial curve]"}, {"compound": "COc1ccc(S(=O)(=O)NNC(=O)Nc2ccc(C)cc2C)c(OC)c1", "Potency": "inconclusive [inhibitor, full curve, poor fit]"}, {"compound": "Cc1cccc(CSc2nnc3c(n2)[nH]c2ccccc23)c1", "activity change, negative = inhibition": "inactive: -11.3%"}, {"compound": "Fc1ccc(COc2ccc(Br)cc2CNCC2CCCO2)cc1", "note": "(stereo not drawn)", "Potency": "inconclusive [inhibitor, full curve, poor fit]"}, {"compound": "COc1ccc(N(CC(=O)NCc2ccco2)S(C)(=O)=O)cc1", "Potency": "inconclusive [inhibitor, partial curve, poor fit]"}, {"compound": "Cc1ccc(NC(=O)C2C3C=CC4(O3)C2C(=O)N(CCN2CCOCC2)C4C(=O)NC2CCCCC2)cc1C", "note": "(stereo not drawn)", "activity change, negative = inhibition": "inactive: -12.6%"}, {"compound": "COCCNC(C)C(=O)C12CC3CC(CC(C3)C1)C2", "note": "(stereo not drawn)", "Potency": "inconclusive [inhibitor, full curve, poor fit]"}, {"compound": "COC(=O)CSc1nc(C)c2ccc(OC)cc2n1", "Potency": "inconclusive [inhibitor, single point]"}, {"compound": "CC(CCc1ccccc1)NC(=O)C(=O)NCc1ccccc1", "note": "(stereo not drawn)", "Potency": "inconclusive [inhibitor, full curve, poor fit]"}, {"compound": "CCOC(=O)C1CCCN(S(=O)(=O)c2cc3c(cc2C)NC(=O)CO3)C1", "note": "(stereo not drawn)", "activity change, negative = inhibition": "inactive: 23.6%"}, {"compound": "CCC(C)(C)C1CCC2(CC1)NC(=O)N(CC(=O)N(C)Cc1ccc3c(c1)OCCO3)C2=O", "note": "(stereo not drawn)", "activity change, negative = inhibition": "inactive: 2.42%"}, {"compound": "CS(=O)(=O)N1CCN(C(=O)c2ccc(Cl)s2)CC1", "Potency": "inconclusive [inhibitor, partial curve, poor fit]"}, {"compound": "O=C(CSc1nc2c([nH]c3ccccc32)c(=O)n1-c1ccc(F)cc1)NCc1ccco1", "Potency": "inactive"}, {"compound": "Cc1nc2ccccc2c(=O)n1CCCO", "Potency": "inconclusive [inhibitor, single point]"}, {"compound": "Cc1ccc(C(=O)NNC(=O)c2ccccc2O)cc1S(=O)(=O)N1CCCCC1", "Potency": "inconclusive [inhibitor, single point]"}, {"compound": "CCOC(=O)c1nnn(-c2nc(OC)nc(N3CCCC3)n2)c1-c1ccccc1", "Potency": "inconclusive [inhibitor, full curve, poor fit]"}, {"compound": "CCSc1ncc(Cl)c(C(=O)N(Cc2ccccc2)Cc2ccco2)n1", "activity change, negative = inhibition": "inactive: -8.92%"}, {"compound": "CCCOc1ccc(NC(=O)CC2C(=O)N(c3ccc(C)cc3)C(=O)N2C2CCCC2)cc1", "note": "(stereo not drawn)", "Potency": "inconclusive [inhibitor, partial curve]"}, {"compound": "CCOC(=O)c1c(NC(=O)CC(C)C)sc(C(C)=O)c1C", "Potency": "inconclusive [inhibitor, single point]"}, {"compound": "O=C(NCc1cccnc1)C(=O)NCC1OCCN1S(=O)(=O)c1ccc(F)cc1", "note": "(stereo not drawn)", "Potency": "inconclusive [inhibitor, full curve, poor fit]"}, {"compound": "COc1ccc(C2SCC(C(=O)O)N2C(C)=O)cc1", "note": "(stereo not drawn)", "Potency": "inconclusive [inhibitor, single point]"}, {"compound": "Nc1nc(N)c2sc3nc4c(cc3c2n1)CCC4", "activity change, negative = inhibition": "inactive: -0.174%"}, {"compound": "O=C(CC1C(=O)NCCN1Cc1ccccc1C(F)(F)F)NC1CCC1", "note": "(stereo not drawn)", "activity change, negative = inhibition": "inactive: 3.28%"}, {"compound": "CC1CC(C)CN(S(=O)(=O)c2cccc(C(=O)N3CCN(c4ccc(F)cc4)CC3)c2)C1", "note": "(stereo not drawn)", "activity change, negative = inhibition": "inactive: 2.32%"}, {"compound": "O=C(c1ccc(Cl)cc1)N1CCCOC1", "Potency": "inconclusive [inhibitor, partial curve]"}, {"compound": "CSc1ccccc1C(=O)NC(C)c1ccc(-n2ccnc2)cc1", "note": "(stereo not drawn)", "activity change, negative = inhibition": "inactive: 3.86%"}, {"compound": "c1nc(N2CCCC2)c2[nH]cnc2n1", "Potency": "inconclusive [inhibitor, full curve]"}, {"compound": "C/C(CC(=O)Nc1cccc(Cl)c1C)=N\\NC(=O)C(=O)NCC(C)C", "Potency": "inconclusive [inhibitor, partial curve]"}, {"compound": "Cc1ccc(Nc2nc3ccccc3[nH]2)nc1", "Potency": "inconclusive [inhibitor, full curve, poor fit]"}, {"compound": "O=C(NC1CCCCCCC1)c1ccco1", "activity change, negative = inhibition": "inactive: 1.79%"}, {"compound": "CCn1cc(SCC(N)=O)c2ccccc21", "Potency": "inconclusive [inhibitor, partial curve]"}, {"compound": "O=C(CSc1nc(-c2ccccc2)nc2c1Cc1ccccc1O2)Nc1ccc(C(=O)O)cc1", "Potency": "inconclusive [inhibitor, partial curve]"}, {"compound": "CC1(C(=O)NCC2CC2)C=CC2(CCCCC2)N1C(=O)c1ccccc1", "note": "(stereo not drawn)", "Potency": "inconclusive [inhibitor, full curve]"}, {"compound": "C=C(C)c1cccc(C(C)(C)NC(=O)Nc2ccc(OC)cc2)c1", "Potency": "inconclusive [inhibitor, full curve]"}, {"compound": "Cc1c(NC(=O)c2cc3c(s2)-c2ccccc2OC3)cccc1[N+](=O)[O-]", "activity change, negative = inhibition": "inactive: 0.599%"}, {"compound": "CC(=O)Nc1ccc(NS(=O)(=O)c2ccc(Cl)s2)cc1", "Potency": "inconclusive [inhibitor, full curve, poor fit]"}, {"compound": "CC(=O)c1cccc(NC(=O)CCS(=O)(=O)c2cccc3nsnc23)c1", "Potency": "inconclusive [inhibitor, full curve, poor fit]"}, {"compound": "COCCn1c(SCC(=O)N2CCc3ccccc3C2)nc2cc(Cl)ccc2c1=O", "activity change, negative = inhibition": "inactive: -0.681%"}, {"compound": "CCS(=O)(=O)N1Cc2ccccc2CC1C(=O)Nc1ncc(C)s1", "note": "(stereo not drawn)", "activity change, negative = inhibition": "inactive: -0.108%"}, {"compound": "O=C(Cn1nc(C(F)(F)F)cc1C1CC1)Nc1ccccc1F", "activity change, negative = inhibition": "inactive: -3.63%"}, {"compound": "Cc1cc(NC(=O)c2ccc(N3CCCC3)c([N+](=O)[O-])c2)no1", "Potency": "inconclusive [inhibitor, full curve]"}, {"compound": "Cc1cc(Cl)c(S(=O)(=O)NCc2ccccc2)cc1OCC(N)=O", "Potency": "inconclusive [inhibitor, full curve, poor fit]"}, {"compound": "CCC(=O)Nc1c(C(=O)Nc2cccc(OC)c2)oc2ccccc12", "activity change, negative = inhibition": "inactive: -3.45%"}, {"compound": "O=C(/C=C/c1ccc2c(c1)OCO2)Nc1ccc(Cl)cn1", "Potency": "inconclusive [inhibitor, partial curve, poor fit]"}, {"compound": "Cc1cc(C)c(NC(=O)c2ccc(S(=O)(=O)N3CCOCC3)cc2)c(C)c1", "Potency": "inconclusive [inhibitor, full curve]"}, {"compound": "O=C(O)CCC(=O)N1CCc2cc(S(=O)(=O)NCCc3ccc(Cl)cc3)ccc21", "activity change, negative = inhibition": "inactive: -0.775%"}, {"compound": "COc1ccc(NC(=O)c2c(N)cnn2C)cc1", "Potency": "inconclusive [inhibitor, partial curve]"}, {"compound": "CC1=NN(c2ccc(Br)cc2)C(=O)/C1=C/c1ccc(-c2ccccc2C(=O)O)o1", "activity change, negative = inhibition": "inactive: -2.69%"}, {"compound": "O=C(c1ccc([N+](=O)[O-])o1)N1CCc2ccccc21", "activity change, negative = inhibition": "inactive: 2.43%"}, {"compound": "Nc1ccc(Nc2ccccc2N)cc1", "Potency": "inconclusive [inhibitor, full curve, poor fit]"}, {"compound": "O=C(NNC(=O)c1cc(-c2ccc(Cl)c(Cl)c2)nc2ccccc12)Nc1ccccc1", "Potency": "inconclusive [inhibitor, full curve, poor fit]"}, {"compound": "COc1ccccc1-c1ccc(SCc2ccccc2F)nn1", "activity change, negative = inhibition": "inactive: 0.741%"}, {"compound": "CCOC(=O)c1cc2n(n1)C(C(F)(F)F)CC(C)N2", "note": "(stereo not drawn)", "activity change, negative = inhibition": "inactive: -14.9%"}, {"compound": "CCNc1c2c3c(cccc3n(C)c1=O)C(=O)c1ccccc1-2", "activity change, negative = inhibition": "inactive: -14.6%"}, {"compound": "CCc1cc2cc(C(=O)Nc3ccc(F)cc3)sc2s1", "Potency": "inconclusive [inhibitor, single point]"}, {"compound": "C1CCC(CNc2c3c(nc4nnnn24)CCCC3)CC1", "Potency": "inconclusive [inhibitor, full curve]"}, {"compound": "COc1cccc(NC(=O)C2=COCCO2)c1", "Potency": "inconclusive [inhibitor, single point]"}, {"compound": "O=C(NCCSCc1ccccc1)C1CCN(S(=O)(=O)Cc2ccccc2)CC1", "activity change, negative = inhibition": "inactive: 22.1%"}, {"compound": "CCN(CC)c1ccc(C2C(C(N)=O)=C(C)Nc3nc(SCc4ccccc4Cl)nn32)cc1", "note": "(stereo not drawn)", "Potency": "inconclusive [inhibitor, single point]"}, {"compound": "Cc1ccc(C(=O)Nc2nc3ccccc3n2CCN2CCCC2)cc1", "Potency": "inconclusive [inhibitor, partial curve, poor fit]"}, {"compound": "COc1ccccc1CNC(=O)C(NS(=O)(=O)c1ccc2c(c1)oc(=O)n2C)C(C)C", "note": "(stereo not drawn)", "Potency": "inconclusive [inhibitor, partial curve, poor fit]"}, {"compound": "CCOc1ccc(-c2cn3nc(CC(C)C)sc3n2)cc1", "activity change, negative = inhibition": "inactive: 8.73%"}, {"compound": "CCN1CCN(C(=O)CN(Cc2ccccc2)S(C)(=O)=O)CC1", "Potency": "inconclusive [inhibitor, single point]"}, {"compound": "O=C(/C=C/c1ccc(Cl)cc1)c1cccnc1", "activity change, negative = inhibition": "inactive: -16.6%"}]}]}
